# The list shows a part of the results. The full chains were built here from the parent and the listed change. Inactive controls read about 0.05.
# B1: TEV protease; numbered along this chain (parent)
# chain: MGESLFKGPRDYNPISSSICHLTNESDGHTTSLYGIGFGPFIITNKHLFRRNNGTLVVQSLHGVFKVKDTTTLQQHLVDGRDMIIIRMPKDFPPFPQKLKFREPQREERICLVTTNFQTKSMSSMVSDTSCTFPSGDGIFWKHWIQTKDGQCGSPLVSTRDGFIVGIHSASNFTNTNNYFTSVPKNFMELLTNQEAQQWVSGWRLNADSVLWGGHKVFMVKPEEPFQPVKEATQL
# Variants of: B1
# Test: raw area under fraction-flipped curve 0-4 h after induction (AUC4h, not background-subtracted), DNA-recorder readout of cleavage of the substrate (dimensionless); higher = more cleavage of the substrate by the protease variant
# Details: temperature: 34 °C; time window: 0-4 h after rhamnose induction
# 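Further: Bxb1 expression induced with 0.2% (w/v) L-rhamnose at OD600 near 0.5, cultures sampled hourly, flipped fraction per protease–substrate barcode pair counted by paired-end Illumina sequencing.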
Variant,area with substrate CNLYFQS,area with substrate DNLYFQS,area with substrate GNLYFQS,area with substrate HNLYFQS,area with substrate INLYFQS,area with substrate LNLYFQS,area with substrate NNLYFQS,area with substrate PNLYFQS,area with substrate VNLYFQS,area with substrate WNLYFQS,area with substrate FNLYFQS,area with substrate MNLYFQS,area with substrate SNLYFQS,area with substrate TNLYFQS,area with substrate YNLYFQS,area with substrate KNLYFQS,area with substrate RNLYFQS,area with substrate QNLYFQS
MGESLFKGPRDYNPISSSICHLTNESDGHTTSLYGIGFGPFIITNKHLFRRNNGTLVVQSLHGVFKVKDTTTLQQHLVDGRDMIIIRMPKDFPPFPQKLKFREPQREERICLVTTNFQTKSMSSMVSDTSCTFPSGDGIFWKHWIQTKDGQCGSPLVSTRDGFIVGIHSASNFTNTNNYFTSVPKNFMELLTNQEAQQWVAGWRLNADSVLWGGHKVFMVKPEEPFQPVKEATQL [S201A],0.0701,0.0581,0.068,0.0719,0.0675,0.0587,0.0633,0.0655,0.0775,0.0644,,,,,,,,
MGESLFKGPRDYNPISSSICHLTNESDGHTTSLYGIGFGPFIITNKHLFRRNNGTLVVQSLHGVFKVKDTTTLQQHLVDGRDMIIIRMPKDFPPFPQKLKFREPQREERICLVTTNFQTKSMSSMVSDTSCTFPSGDGIFWKHWIQTKDGQCGSPLVSTRDGFIVGIHSASNFTNTNNYFTSVPKNFMELLTNQEAQQWVSGWRLSADSVLWGGHKVFMVKPEEPFQPVKEATQL [N206S],0.0558,0.0651,0.0818,0.0634,,0.0444,,0.0679,,,0.0654,0.0627,0.0763,0.067,0.0511,,,
MGESLFKGPRDYNPISSSICHLTNESDGHTTSLYGIGFGPFIITNKHLFRRNNGTLVVQSLHGVFKVKDTTTLQQHLVDGRDMIIIRMPKDFPPFPQKLKFREPQREERICLVTTNFQTKSMSSMVSDTSCTFPSGDGIFWKHWIQTKDGQCGSPLVSTRDGFIVGIHSASNFTNTNNYFTSVPKNFMELLTNQEAQQWVSGWRLNADSVLWGYHKVFMVKPEEPFQPVKEATQL [G214Y],0.0517,0.0596,,,0.0633,0.0667,,,,0.0615,,,,0.0687,,,,
MGESLFKGPRDYNPISSSICHLTNESDGHTTSLYGIGFGPFIITNKHLFRRNNGTLVVQSLHGVFKVKDTTTLQQHLVDGRDMIIIRMPKDFPPFPQKLKFREPQREERICLVTTNFQTKSMSSMVSDTSCTFPSGDGIFWKHWIQTKDGQCGSPLVSTRDGFIVGIHSASNFTNTNNYFTSVPKNFMELLTNQEAQQWVSGWRLNADSQLWGGHKVFMVKPEEPFQPVKEATQL [V210Q],0.0647,0.0595,0.067,0.0628,,0.0613,0.0627,0.0655,,0.0539,0.0609,0.0545,0.0663,0.0676,0.0557,0.0616,0.055,
MGESLFKGPRDYNPISSSICHLTNESDGHTTSLYGIGFGPFIITNKHLFRRNNGTLVVQSLHGVFKVKDTTTLQQHLVDGRDMIIIRMPKDFPPFPQKLKFREPQREERICLVTTNFQTKSMSSMVSDTSCTFPSGDGIFWKHWIQTKDGQCGSPLVSTRDGFIVGIHSASNFTNTNNYFTSVPKNFMELLTNQEAQQWVSGWRLNADSLLWGGHKVFMVKPEEPFQPVKEATQL [V210L],0.0441,0.0535,,0.0536,,0.0588,,0.0453,0.0781,0.0626,,,0.064,0.076,0.0588,0.0881,,
MGESLFKGPRDYNPISSSICHLTNESDGHTTSLYGIGFGPFIITNKHLFRRNNGTLVVQSLHGVFKVKDTTTLQQHLVDGRDMIIIRMPKDFPPFPQKLKFREPQREERICLVTTNFQTKSMSSMVSDTSCTFPSGDGIFWKHWIQTKDGQCGSPLVSTRDGFIVGIHSASNFTNTNNYFTSVPKNFMELLTNQEAQQWVSGWRLNADSCLWGGHKVFMVKPEEPFQPVKEATQL [V210C],0.0629,0.0574,0.0495,0.0597,0.0628,,,0.0565,0.0546,0.0664,,,0.051,0.0598,0.0534,0.0638,,0.0604
MGESLFKGPRDYNPISSSICHLTNESDGHTTSLYGIGFGPFIITNKHLFRRNNGTLVVQSLHGVFKVKDTTTLQQHLVDGRDMIIIRMPKDFPPFPQKLKFREPQREERICLVTTNFQTKSMSSMVSDTSCTFPSGDGIFWKHWIQTKDGQCGSPLVSTRDGFIVGIHSASNFTNTNNYFTSVPKNFMELLTNQEAQQWVSGWRLNADSSLWGGHKVFMVKPEEPFQPVKEATQL [V210S],0.0541,0.0534,0.0601,,0.0567,,0.0803,,,0.0634,0.035,0.0417,,0.0552,0.0457,0.0565,,
MGESLFKGPRDYNPISSSICHLTNESDGHTTSLYGIGFGPFIITNKHLFRRNNGTLVVQSLHGVFKVKDTTTLQQHLVDGRDMIIIRMPKDFPPFPQKLKFREPQREERICLVTTNFQTKSMSSMVSDTSCTFPSGDGIFWKHWIQTKDGQCGSPLVSTRDGFIVGIHSASNFTNTNNYFTSVPKNFMELLTNQEAQQWVSGWRLNADSVHWGGHKVFMVKPEEPFQPVKEATQL [L211H],0.0994,0.0778,,0.071,,0.0534,,,,0.0689,,0.0655,0.0724,,,,,
MGESLFKGPRDYNPISSSICHLTNESDGHTTSLYGIGFGPFIITNKHLFRRNNGTLVVQSLHGVFKVKDTTTLQQHLVDGRDMIIIRMPKDFPPFPQKLKFREPQREERICLVTTNFQTKSMSSMVSDTSCTFPSGDGIFWKHWIQTKDGQCGSPLVSTRDGFIVGIHSASNFTNTNNYFTSVPKNFMELLTNQEAQQWVSGWRLNADSVPWGGHKVFMVKPEEPFQPVKEATQL [L211P],0.0614,0.0742,0.0574,,,0.0522,,0.0512,,,0.06,0.0431,,,,,,
MGESLFKGPRDYNPISSSICHLTNESDGHTTSLYGIGFGPFIITNKHLFRRNNGTLVVQSLHGVFKVKDTTTLQQHLVDGRDMIIIRMPKDFPPFPQKLKFREPQREERICLVTTNFQTKSMSSMVSDTSCTFPSGDGIFWKHWIQTKDGQCGSPLVSTRDGFIVGIHSASNFTNTNNYFTSVPKNFMELLTNQEAQQWVSGWCLNADSVLWGGHKVFMVKPEEPFQPVKEATQL [R204C],0.0724,0.11,0.0624,0.0783,0.065,0.0702,0.0769,0.0768,0.0694,0.0598,0.0692,0.0683,,0.0755,0.0667,,,
MGESLFKGPRDYNPISSSICHLTNESDGHTTSLYGIGFGPFIITNKHLFRRNNGTLVVQSLHGVFKVKDTTTLQQHLVDGRDMIIIRMPKDFPPFPQKLKFREPQREERICLVTTNFQTKSMSSMVSDTSCTFPSGDGIFWKHWIQTKDGQCGSPLVSTRDGFIVGIHSASNFTNTNNYFTSVPKNFMELLTNQEAQQWVSGWRLNADSVLWGGHKDFMVKPEEPFQPVKEATQL [V217D],0.0537,0.0591,0.0726,0.0557,0.0548,,0.0497,,0.0558,0.0572,,,0.0542,0.0448,,0.0585,,
MGESLFKGPRDYNPISSSICHLTNESDGHTTSLYGIGFGPFIITNKHLFRRNNGTLVVQSLHGVFKVKDTTTLQQHLVDGRDMIIIRMPKDFPPFPQKLKFREPQREERICLVTTNFQTKSMSSMVSDTSCTFPSGDGIFWKHWIQTKDGQCGSPLVSTRDGFIVGIHSASNFTNTNNYFTSVPKNFMELLTNQEAQQWVSGWRLNADSVLQGGHKVFMVKPEEPFQPVKEATQL [W212Q],0.0778,0.0449,0.0642,0.0529,0.058,0.0452,0.0625,0.059,,0.0527,0.0619,0.0626,0.0633,,0.0546,0.0709,0.0664,0.0484
MGESLFKGPRDYNPISSSICHLTNESDGHTTSLYGIGFGPFIITNKHLFRRNNGTLVVQSLHGVFKVKDTTTLQQHLVDGRDMIIIRMPKDFPPFPQKLKFREPQREERICLVTTNFQTKSMSSMVSDTSCTFPSGDGIFWKHWIQTKDGQCGSPLVSTRDGFIVGIHSASNFTNTNNYFTSVPKNFMELLTNQEAQQWVSGWRLNADSVLWGGHKVFGVKPEEPFQPVKEATQL [M219G],0.0514,0.0771,0.0665,0.0535,0.0658,0.0592,0.0826,0.0551,0.0535,0.0461,0.0505,0.061,,0.0536,0.0619,0.0581,0.0494,0.0657
MGESLFKGPRDYNPISSSICHLTNESDGHTTSLYGIGFGPFIITNKHLFRRNNGTLVVQSLHGVFKVKDTTTLQQHLVDGRDMIIIRMPKDFPPFPQKLKFREPQREERICLVTTNFQTKSMSSMVSDTSCTFPSGDGIFWKHWIQTKDGQCGSPLVSTRDGFIVGIHSASNFTNTNNYFTSVPKNFMELLTNQEAQQWVSYWRLNADSVLWGGHKVFMVKPEEPFQPVKEATQL [G202Y],0.0773,0.0403,0.0723,,,,,0.0593,0.0485,0.0568,0.0202,,0.0599,0.0534,0.0582,,0.0727,0.0698
MGESLFKGPRDYNPISSSICHLTNESDGHTTSLYGIGFGPFIITNKHLFRRNNGTLVVQSLHGVFKVKDTTTLQQHLVDGRDMIIIRMPKDFPPFPQKLKFREPQREERICLVTTNFQTKSMSSMVSDTSCTFPSGDGIFWKHWIQTKDGQCGSPLVSTRDGFIVGIHSASNFTNTNNYFTSVPKNFMELLTNQEAQQWVSHWRLNADSVLWGGHKVFMVKPEEPFQPVKEATQL [G202H],0.0654,0.0569,0.06,0.0606,,,0.0639,0.057,,0.0588,,,0.0845,0.0565,0.0533,0.0641,0.0659,
MGESLFKGPRDYNPISSSICHLTNESDGHTTSLYGIGFGPFIITNKHLFRRNNGTLVVQSLHGVFKVKDTTTLQQHLVDGRDMIIIRMPKDFPPFPQKLKFREPQREERICLVTTNFQTKSMSSMVSDTSCTFPSGDGIFWKHWIQTKDGQCGSPLVSTRDGFIVGIHSASNFTNTNNYFTSVPKNFMELLTNQEAQQWVSGWRLNADSVLWLGHKVFMVKPEEPFQPVKEATQL [G213L],0.0618,0.0613,,,0.0595,0.0626,0.0499,0.0479,0.0479,0.0592,0.0498,,,0.0491,0.0778,,,
MGESLFKGPRDYNPISSSICHLTNESDGHTTSLYGIGFGPFIITNKHLFRRNNGTLVVQSLHGVFKVKDTTTLQQHLVDGRDMIIIRMPKDFPPFPQKLKFREPQREERICLVTTNFQTKSMSSMVSDTSCTFPSGDGIFWKHWIQTKDGQCGSPLVSTRDGFIVGIHSASNFTNTNNYFTSVPKNFMELLTNQEAQQWVSGWRLNADFVLWGGHKVFMVKPEEPFQPVKEATQL [S209F],0.0709,0.0861,0.0797,0.0801,0.0847,,0.055,,0.107,0.0669,,0.0719,0.0753,0.0765,0.0558,0.0784,,
MGESLFKGPRDYNPISSSICHLTNESDGHTTSLYGIGFGPFIITNKHLFRRNNGTLVVQSLHGVFKVKDTTTLQQHLVDGRDMIIIRMPKDFPPFPQKLKFREPQREERICLVTTNFQTKSMSSMVSDTSCTFPSGDGIFWKHWIQTKDGQCGSPLVSTRDGFIVGIHSASNFTNTNNYFTSVPKNFMELLTNQEAQQWVSGWRLNNDSVLWGGHKVFMVKPEEPFQPVKEATQL [A207N],0.0833,0.0755,,0.0579,0.0763,0.06,0.0067,0.0651,0.054,0.0683,0.055,,0.0557,0.0606,0.072,0.0564,,
MGESLFKGPRDYNPISSSICHLTNESDGHTTSLYGIGFGPFIITNKHLFRRNNGTLVVQSLHGVFKVKDTTTLQQHLVDGRDMIIIRMPKDFPPFPQKLKFREPQREERICLVTTNFQTKSMSSMVSDTSCTFPSGDGIFWKHWIQTKDGQCGSPLVSTRDGFIVGIHSASNFTNTNNYFTSVPKNFMELLTNQEAQQWVSGWRLNPDSVLWGGHKVFMVKPEEPFQPVKEATQL [A207P],0.0544,0.0763,,,,,,0.055,,0.0625,,,0.046,0.0549,0.0881,,,

# — the supplement of paper PMC12217912
